Results published in the supplement of paper PMC11417369.
± gives the standard deviation of the averaged measurements. The list shows a part of the results.

Tested on: PfAP2-EXP AP2 domain (GST-tagged)
Test: gcPBM binding intensity (ln(normalized median fluorescence intensity)); higher = stronger DNA binding
How it was run: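 The highest Masliner-normalised natural-log median intensity across replicate spots of either probe orientation is reported as binding intensity. GST-tagged P. falciparum DNA-binding domains expressed in E. coli were applied for 1 h to an Agilent 4 × 180k array of primer-extended double-stranded 36-bp intergenic genomic probes plus negative controls, and bound protein was detected with Alexa488 anti-GST antibody and scanned at 488 nm.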

Row | Sequence | gcPBM binding intensity (ln)
1 | TATATATAAATATTCAGTACATAGTGCTATTAAGTG [XGTACX_site1979] | 8.605 ± 0.064
2 | CCATTATATCTAAGTACACACATTAATTTTTTTTTT [CACACA_site6115] | 8.54 ± 0.32
3 | TTTTTATAAAAAAATAGTACTCGTCTAATCTTATGT [XGTACX_site8532] | 8.48 ± 0.26
4 | GAAATTTTATTTCGGCGGACAAATGTATACTTTCTT [XGTACX_site4238] | 8.54 ± 0.33
5 | CTGTATAAAACCAATGCATGTAAATATATTAATATA [TGCATGCA_site511] | 9.1 ± 0.42
6 | AAAATATATATAAATGCATGCATAATGAAATATATA [TGCATGCA_site39] | 9.95 ± 0.21
7 | TTTTAAAAAACAAACACACACGTAGAAAAAAAAAAA [CACACA_site4608] | 8.85 ± 0.44
8 | GAGAAGACATTACACAGTACCCAGTAACTCTACGGA [XGTACX_site2000] | 8.32 ± 0.39
9 | AAATTGGGGCTTGTTACACACTTAGTGCGAGTTCTA [CACACA_site582] | 8.61 ± 0.35
10 | GATTATTATGTCCATGCATGTTAATATATATTAATT [TGCATGCA_site837] | 9.14 ± 0.38
11 | AAAAAAAAAAAAAAAAAAAAAAAAAAAAAAACATAT [GTGCAC_negctrl_site580] | 9.21 ± 0.19
12 | ATGAATAATTAATGATGTACTTAAAAAAAAAAATAT [XGTACX_site6346] | 8.48 ± 0.42
13 | GTTAATATCTTGAACAGTACTCTAAATATCTACATA [XGTACX_site5358] | 8.39 ± 0.48
14 | ATATATTATATTGAATGTACATATATATATTATATA [XGTACX_site8445] | 8.35 ± 0.33
15 | TTACAATAAATTATAGTGCAATATTTTATTTAATAT | 8.565 ± 0.021
16 | TAGCCCATATGGAATACACACTGAAAATAAAAAAAG [CACACA_site5799] | 8.74 ± 0.7
17 | TGCTATAATTTATATACACACAAATATATACACATA [CACACA_site9356] | 8.32 ± 0.33
18 | GATAATAATAAACAACCACACACAAAAAAACAAAAA [CACACA_site9074] | 8.68 ± 0.64
19 | TTCAAATTTCCACATACACACCTTGTAGATCTATAT [CACACA_site6270] | 8.78 ± 0.53
20 | CAATGTTGTACATACACACACACAAAAAAAAAATAA [CACACA_site2407] | 8.57 ± 0.47
21 | ATAAAAAAACACACTCGTACACACATATTTTCTTTC [XGTACX_site6565] | 8.69 ± 0.41
22 | TTTATATTATTAGAAACACACATTAGATTAAAATTA [CACACA_site3286] | 8.2 ± 0.47
23 | TATTTAATTACATGAACACACATTATATATTTTTAA [CACACA_site5615] | 8.23 ± 0.35

Row | Sequence | gcPBM binding intensity (ln)
24 | TATATATATATGTGCACACCAATTGTATGTAATATA [CACACA_site3889] | 10.04 ± 0.092
25 | ATATAACACATTAGTTGTACTATTTTTAATTGGTGA [XGTACX_site961] | 8.33 ± 0.33
26 | ACTACATAATATTAACGTACATATTATAATACTTGC [XGTACX_site954] | 8.79 ± 0.34
27 | TACATAATAACATGTACACACATTCTTCTATAAATG [CACACA_site4061] | 8.69 ± 0.23
28 | CATTAAAAAGAAAGTTCACACACATATATATGACGG [CACACA_site8836] | 8.84 ± 0.57
29 | ACATAATAAAAATGACGTACAATTTTTTTTTTTCAT [XGTACX_site8340] | 8.29 ± 0.3
30 | ATGCGTTAATCTATATATATTATGTATAGATTTTCA [CACACA_negctrl_site1650] | 8.38 ± 0.38
31 | AACATATTTATGATGTGTACCTACATAATAGAATTT [XGTACX_site141] | 8.38 ± 0.32
32 | CATAATGTAAATAAGTGTACACATATATAATACATA [XGTACX_site3108] | 8.78 ± 0.33
33 | TTTTTTAATATATTATTATAAATATTTTTTATGTGT [GTGCAC_negctrl_site712] | 8.21 ± 0.39
34 | ATATTTTGATAATATTGTACAAAAACATTAAAATGT [XGTACX_site8361] | 8.46 ± 0.45
35 | TCTTTTATGATATTTACACACAAACGTGAGATAGCT [CACACA_site2312] | 8.3 ± 0.47
36 | AACATTATGTTTATTTGTACATATAAATATATGTAA [XGTACX_site7389] | 8.29 ± 0.34
37 | CTCTACGAATTCATAGTGCAAAGAGCTAATTTTTTC [GTGCAC_site9710] | 8.41 ± 0.17
38 | GATCATTCAGTTTTATCACACACAATCAAACATATA [CACACA_site8882] | 8.73 ± 0.4
39 | ATATATATATATATATGTACATATTTGATTTTTCTT [XGTACX_site8171] | 10.1 ± 0.29
40 | ATTTTGATGATGTATGCACACATTGAAAATGAGAAA [CACACA_site2916] | 8.72 ± 0.33
41 | ACAACATATGTTATCACACACATATAAATATAAATA [CACACA_site7038] | 8.41 ± 0.54
42 | TCACTACATTTTGGACGTACACAACTTGATATATTG [XGTACX_site4775] | 8.85 ± 0.4
43 | CACACGCACAGACACACACACACACGGATATAAATA [CACACA_site6301] | 8.77 ± 0.41
44 | TTTTTTTTTTTTTTTTGTACATATAAAAATACGTAA [XGTACX_site6003] | 8.11 ± 0.58
45 | ATGATATACTTGAGTGTGCACAAACTATTACTTACA | 8.97 ± 0.13
46 | AAATCTTAACTCTATGCACACATAAAAGTATATAAA [CACACA_site8709] | 8.41 ± 0.15

Row | Sequence | gcPBM binding intensity (ln)
47 | TTTTGTAGATATTGAAGTACAAAAAAAATGTAAAAG [XGTACX_site5905] | 8.66 ± 0.092
48 | ATCGGTAATATTAACACACACATTTATATATATTTA [CACACA_site1084] | 8.74 ± 0.38
49 | TATATATCGCCCTTCACACACACACGGATATAAATA [CACACA_site7221] | 8.98 ± 0.47
50 | CGCTCTTATAAATGTTGTACATAAAACTGTTCATTA [XGTACX_site3409] | 8.58 ± 0.35
51 | ATAATAAATATATAATGTACATATTATGTTCTTTAT [XGTACX_site8655] | 8.51 ± 0.42
52 | AAAAGAAAATAAGAAACACACAAAAATATATAAAAA [CACACA_site3697] | 8.72 ± 0.45
53 | TTCTTTGCTTTTCAAACACACAAAAGTTATTATATT [CACACA_site521] | 8.62 ± 0.33
54 | TTATAAATGTATTTATGTACATATAAATATATATAA [XGTACX_site2970] | 8.22 ± 0.26
55 | ATAAAAGAATAAATAAAACACATATATATATATATA [XGTACX_negctrl_site31] | 10.1 ± 0.14
56 | ATATAAATCAAAAACGCACACATAAATATTTATATA [CACACA_site2442] | 8.77 ± 0.54
57 | TTTTTTTTTTTTTTGGTGCACATAGAAATTCTAAAA [GTGCAC_site9809] | 8.88 ± 0.13
58 | CCTATTTATAAATACACACACATATATAAATAAATA [CACACA_site5629] | 8.54 ± 0.43
59 | AAAAAGAAATCCAATACACACCTTCAAAATGGGTAT [CACACA_site4978] | 8.38 ± 0.44
60 | TATTTATAGATATATACACACATATTTATATTTATA [CACACA_site6441] | 8.24 ± 0.39
61 | AAAAAACTATTATGTGCATGCACAAGTCAGGTAAAT [TGCATGCA_site791] | 10.1 ± 0.11
62 | CATTAAATATATAAATGTACAAATATATTTTTCAAA [XGTACX_site4429] | 8.12 ± 0.35
63 | TTAATGTAGAGAAAATGTACATTTTATTAAAACAAT [XGTACX_site6376] | 8.7 ± 0.35
64 | TTGTTCATATTTTTTATTGTGTTAATATTTATAAAA [GTGCAC_negctrl_site423] | 8.79 ± 0.46
65 | ATCTATAAATTTCCACGTACATATATATATATATAT [XGTACX_site4502] | 10.1 ± 0.13
66 | TTTTAAATATATGTGCTATTATATTAAGAGATGTAA [GTGCAC_negctrl_site560] | 8.38 ± 0.18
67 | CCTCTTTTTATTCTCACACACGTTTATATATAAAGT [CACACA_site4992] | 9.08 ± 0.31
68 | GAAATTTCCCATATTACACACATACTATGATATATA [CACACA_site5987] | 8.7 ± 0.52
69 | TTTTTTATTTTTGCGTGTACATAATAATGAATCTTC [XGTACX_site8077] | 8.78 ± 0.46

Row | Sequence | gcPBM binding intensity (ln)
70 | ATATTGTTTTATATAGAACACACATAAAAATATATA [CACACA_site8314] | 8.41 ± 0.4
71 | TTTTTTTTTTTAAAAAGTACACAATTAATTAATATA [XGTACX_site8494] | 8.33 ± 0.37
72 | GGCATAAATATATGCACACACAAAAAAAAAAAAAAA [CACACA_site59] | 8.38 ± 0.38
73 | AAAATAAGAAATAGATGTACTTATAAATAAATACAA [XGTACX_site4441] | 8.15 ± 0.11
74 | ATATATATATATATATGTACTTATTTGAATACTAAA [XGTACX_site2330] | 10.2 ± 0.53
75 | GAAAGAATAAAATTTACACACATATATATATACATA [CACACA_site2250] | 8.5 ± 0.4
76 | TATAAACATTATAAATGTACAAATATATATATATAT [XGTACX_site3218] | 9.86 ± 0.4
77 | TTATTGAAAAAAGAACAAAAAAAAAAAGAAAAATTA [XGTACX_negctrl_site438] | 8.28 ± 0.55
78 | TCATTATATCATGGTAGTACTCATTAATAATACGTA [XGTACX_site8701] | 8.45 ± 0.33
79 | TATATATTTTTTAAACCACACACAATATAGAGTATA [CACACA_site8106] | 8.67 ± 0.41
80 | AATATTATTTAGGAGCGTACGTTTTATTTACATATT [XGTACX_site5188] | 8.74 ± 0.44
81 | GTTAATAAAAATATATGTACATAATTATTATGAAAA [XGTACX_site3030] | 8.48 ± 0.32
82 | ATAATGATATATAGTACACACAAAAATGGAAGTAAA [CACACA_site7541] | 8.98 ± 0.43
83 | GGACATTTTTATAAGGTGCACGGTTTTGATATTACT [GTGCAC_site9892] | 8.975 ± 0.035
84 | AACCACATACATATAACACACATATACAATATATAT [CACACA_site8607] | 8.55 ± 0.45
85 | AAGGGTTGCCTGTGTAGTACATATATATATATATAT [XGTACX_site8555] | 10.2 ± 0.21
86 | TGACTATGTATATTTAGTACATAAAATCAATAATAT [XGTACX_site4082] | 8.45 ± 0.32
87 | GTAAACAAAATATTTTGTACATATTTTATATTATTT [XGTACX_site7837] | 8.43 ± 0.19
88 | AGGGAAAAAAAAAAAGTGCATTTGTATTAAATGAAT | 8.71 ± 0.15
89 | AAATATAAGAAAAAGGTGCTTTTTTTTTTTTTTTTT [GTGCAC_site9700] | 8.825 ± 0.007
